# The supplement of paper PMC11417369
# The other results are listed elsewhere or left out.
# Test system: PfSIP2 AP2 domain 1 (GST-tagged)
# Assay: gcPBM binding intensity (ln(normalized median fluorescence intensity)); higher = stronger DNA binding
# Summary of the method: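 The highest Masliner-normalised natural-log median intensity across replicate spots of either probe orientation is reported as binding intensity. GST-tagged P. falciparum DNA-binding domains expressed in E. coli were applied for 1 h to an Agilent 4 × 180k array of primer-extended double-stranded 36-bp intergenic genomic probes plus negative controls, and bound protein was detected with Alexa488 anti-GST antibody and scanned at 488 nm.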
row,Sequence,gcPBM binding intensity (ln)
1,TGAATATTCATATGCACACAAATTAATATACATAAT [CACACA_site442],7.03
2,TATTATAGTCCGACTTTTTAATTTCTTTATTGTTTT [CACACA_negctrl_site1381],6.69
3,TTTTATTTTTAAAATTGTACATTATTATTGTTATTT [XGTACX_site1439],6.85
4,TTTTATGTTTTAAAATGTACGTGTCAATGAATAAGT [XGTACX_site6239],7.96
5,AAATTTTAATTAGACTGTACACATTTTAGAATAATT [XGTACX_site4819],6.87
6,TATTTGTTCTGATCCTTTTATTCAACTTTTTTTTTT [CACACA_negctrl_site978],6.86
7,GGCTAAAAGTTGCACACACACAAAAAAAAAAAAAAA [CACACA_site7531],8.51
8,ACCTTAATTATAATAACACACGAAAAGTGGACACAT [CACACA_site1750],7.44
9,ATGTCACAATTTTTCACACACAAAATTTAAATACAT [CACACA_site5168],7.27
10,TATTATTATATATATAGTACATAAAATATAAAAAAA [XGTACX_site2060],7.03
11,TTTTTTAAATTATATTATAGCAAATAAATATTAAAA [CACACA_negctrl_site1655],6.89
12,TTTTTTTTTTAAATGTGTCCTCATTATAATATATGT [XGTACX_site5331],7
13,TAATTATGCGGACACACACACACACCCAACTAAAAA [CACACA_site5427],7.33
14,GCATTATTATATATTTGTACATATTTTTTTTTAAAA [XGTACX_site5436],7.3
15,AATTATATATAAAGAAGTACTATTTCAAGGAGTTTT [XGTACX_site3837],6.92
16,AATAAAACATCATCATGTACAAAATTCGTCTTTGTA [XGTACX_site4821],6.73
17,TCAAATTTTCAACATTGTACATAAATGTATAAATAT [XGTACX_site6042],6.87
18,CAAAATATATATGACACACACAAAAAAAGTATATTA [CACACA_site1589],6.93
19,TATTGATATATATATATATATATATGTATATACTTA [GTGCAC_negctrl_site111],7.46
20,TTCGCTGTTTTAATTAGTACTTATATATAATATTAT [XGTACX_site1149],7.57
21,CTAAACCTTTTGAGCACACATATATATATATATATA [CACACA_site1782],9.95
22,TTTTTATATAAGAAAAAATTATAACAATTTGTTAAT [XGTACX_negctrl_site422],6.72

row,Sequence,gcPBM binding intensity (ln)
1,AAAAAAAAAATATATTGTACAATATTGTAGCTATAT [XGTACX_site7180],6.99
2,TTCAATAGTAAGTATACACACATATAAATAAATAAA [CACACA_site7295],6.91
3,GCAACCTTGTGCAAATGTACAAAAAAAAAAAAAAAA [XGTACX_site679],7.36
4,TTTTTGTTATTTTTAGTGCAGAAGAATAAATTTTAA,7.79
5,AAAATTTCTTATTTTGTACACACAATAAATATTCAC [CACACA_site8464],7.01
6,TTTTTATTGTTGCTATATTTATAACAATTTATCATA [GTGCAC_negctrl_site75],6.82
7,CAATTTATAAAGAAAACACACATATACATAAATACA [CACACA_site4829],7.13
8,TATATATATGGACACACACACATATATATATATTTT [CACACA_site5409],7.3
9,TATATATAATATAGTGCATGTAAAAAATAAACCATG [TGCATGCA_site932],9.18
10,TATAAATTAAAACATTGTACATTTTTATTATTATGT [XGTACX_site579],6.99
11,TATCTTACTTTTTGCACACACTAATATTATTGTTTA [CACACA_site4990],7.54
12,ACAACTATTCATCATAGTACACGCATGATATATATA [XGTACX_site1539],7.23
13,AAAATTAATATCTTGGTGCATTTTTTAATATTATTA [GTGCAC_site9638],10
14,TTCTTTAAAATGATATACGTTATAAATATATATATA [XGTACX_negctrl_site256],8.82
15,AGAACTTAATGCTGCACACAAAAAAAAGGAAAAATA [CACACA_site1353],7.23
16,AACTTGTATATATACACACACACACTGTCTTTTTTT [CACACA_site1963],7.17
17,AAAAAAAAGTTGTAAGTGCATGTATATAATAATATT,8.08
18,TGATCACATAATAAATGTACAAAAAAAAATTAATAA [XGTACX_site5867],6.75
19,TTTAGATAATTCATTACACACATGTATATATATATA [CACACA_site3483],9.11
20,TAAGGAAGAAGAAAAAGTACTAAAGGTATAAATGCG [XGTACX_site2628],7.09
21,AGAATTAAAATAATACGTACACACATGTATAATACA [XGTACX_site1878],7.32
22,ATTATATCTATAATATGTACATATTATAATATATAT [XGTACX_site3211],7.33
